Some of the results follow.
B1: PhoQ; a variant is named by its letters at X, in order, P23837 (parent)
chain: MKKLLRLFFPLSLRVRFLLATAAVVLVLSLAYGMVALIGYSVSFDKTTFRLLRGESNLFYTLAKWENNKLHVELPENIDKQSPTMTLIYDENGQLLWAQRDVPWLMKMIQPDWLKSNGFHEIEADVNDTSLLLSGDHSIQQQLQEVREDDDDAEMTHSVAVNVYPATSRMPKLTIVVVDTIPVELKSSYMVWSWFIYVLSANLLLVIPLLWVAAWWSLRPIEALAKEVRELEEHNRELLNPATTRELTSLVRNLNRLLKSERERYDKYRTTLTDLTHSLKTPLXXLQXXLRSLRSEKMSVSDAEPVMLEQISRISQQIGYYLHRASMRGGTLLSRELHPVAPLLDNLTSALNKVYQRKGVNISLDISPEISFVGEQNDFVEVMGNVLDNACKYCLEFVEISARQTDEHLYIVVEDDGPGIPLSKREVIFDRGQRVDTLRPGQGVGLAVAREITEQYEGKIVAGESMLGGARMEVIFGRQHSAPKDE

Variants of: B1
Assay: enrichment ratio after two sorts for PhoP signalling (ratio (wild type AVST 3.29)); higher = more functional
Settings: with PhoP (E. coli)
In the case of SFWA, the enrichment ratio is reported as at most 0.25.
For ISTE, the enrichment ratio was at most 0.25.
For RHHC, the enrichment ratio was at most 0.25.
In the case of IVEF, the enrichment ratio is reported as at most 0.25.
MGTG gave an enrichment ratio of at most 0.25.
TEIM was tested, and the enrichment ratio was 8.17.
PGCL gave an enrichment ratio of at most 0.25.
For NATD, the enrichment ratio was at most 0.25.
For QDVF, the enrichment ratio was at most 0.25.
YQGS gave an enrichment ratio of at most 0.25.
PWSH was tested, and the enrichment ratio was at most 0.25.
With WPSY the enrichment ratio was at most 0.25.
ASCD showed an enrichment ratio of at most 0.25.
With DFFT the enrichment ratio was at most 0.25.
WHFM gave an enrichment ratio of at most 0.25.
With YFFI the enrichment ratio was at most 0.25.
In the case of EDMT, the enrichment ratio is reported as at most 0.25.
Work on KNHA yielded an enrichment ratio of at most 0.25.
Work on HFDQ yielded an enrichment ratio of at most 0.25.
QAHM showed an enrichment ratio of 22.3.
MCRD was tested, and the enrichment ratio was at most 0.25.
Variant HAVP has an enrichment ratio of at most 0.25.
Variant FFAH has an enrichment ratio of at most 0.25.
With DMSG the enrichment ratio was at most 0.25.
For AWGI, the enrichment ratio was at most 0.25.
GSGF was tested, and the enrichment ratio was at most 0.25.
GPRI gave an enrichment ratio of at most 0.25.
FTNI gave an enrichment ratio of at most 0.25.
With QVVI the enrichment ratio was at most 0.25.
AFWT was tested, and the enrichment ratio was at most 0.25.
TVWK was tested, and the enrichment ratio was at most 0.25.
With ASQM the enrichment ratio was 2.47.
For KIIH, the enrichment ratio was at most 0.25.
With WSYH the enrichment ratio was at most 0.25.
EVYG gave an enrichment ratio of at most 0.25.
In the case of RFYV, the enrichment ratio is reported as at most 0.25.
ASWL showed an enrichment ratio of 5.05.
WESI gave an enrichment ratio of at most 0.25.
GELY was tested, and the enrichment ratio was 9.1.
For PQTN, the enrichment ratio was at most 0.25.
AAGE gave an enrichment ratio of at most 0.25.
Variant QTRA has an enrichment ratio of at most 0.25.
Work on DMMI yielded an enrichment ratio of at most 0.25.
Work on NVHR yielded an enrichment ratio of at most 0.25.
For PEFQ, the enrichment ratio was at most 0.25.
LTVH showed an enrichment ratio of at most 0.25.
AMWA gave an enrichment ratio of at most 0.25.
TECT gave an enrichment ratio of 5.22.
Work on VQIE yielded an enrichment ratio of at most 0.25.
FWFW gave an enrichment ratio of at most 0.25.
KQNM gave an enrichment ratio of at most 0.25.
For YNNP, the enrichment ratio was at most 0.25.
Variant YFKP has an enrichment ratio of at most 0.25.
Variant LNKS has an enrichment ratio of at most 0.25.
Variant SNGW has an enrichment ratio of 1.05.
Variant QDHG has an enrichment ratio of at most 0.25.
Work on LGDP yielded an enrichment ratio of at most 0.25.
Work on YFHT yielded an enrichment ratio of at most 0.25.
Variant RDTV has an enrichment ratio of at most 0.25.
GEGY gave an enrichment ratio of at most 0.25.
With EIMF the enrichment ratio was at most 0.25.
For PERY, the enrichment ratio was at most 0.25.
In the case of WPQR, the enrichment ratio is reported as at most 0.25.
With YQND the enrichment ratio was at most 0.25.
PWLA gave an enrichment ratio of at most 0.25.
HPFT gave an enrichment ratio of at most 0.25.
KAYW gave an enrichment ratio of at most 0.25.
Work on LKQT yielded an enrichment ratio of at most 0.25.
PCHG gave an enrichment ratio of at most 0.25.
Variant QDLW has an enrichment ratio of at most 0.25.
KHSS gave an enrichment ratio of at most 0.25.
Work on KYLP yielded an enrichment ratio of at most 0.25.
GGLK showed an enrichment ratio of at most 0.25.
With IYDY the enrichment ratio was at most 0.25.
Work on YLTY yielded an enrichment ratio of at most 0.25.
FYVD was tested, and the enrichment ratio was at most 0.25.
INTI was tested, and the enrichment ratio was at most 0.25.
Work on QVNR yielded an enrichment ratio of at most 0.25.
HQVS showed an enrichment ratio of at most 0.25.
In the case of NWRS, the enrichment ratio is reported as 1.15.
Work on EISI yielded an enrichment ratio of 1.12.
NWSE was tested, and the enrichment ratio was at most 0.25.
Variant FLQA has an enrichment ratio of at most 0.25.
With PDCL the enrichment ratio was at most 0.25.
MYLF gave an enrichment ratio of at most 0.25.
Work on KCDW yielded an enrichment ratio of at most 0.25.
Variant MGWK has an enrichment ratio of at most 0.25.
VWPV showed an enrichment ratio of at most 0.25.
For EAYI, the enrichment ratio was at most 0.25.
LLAE showed an enrichment ratio of at most 0.25.
DEEP showed an enrichment ratio of at most 0.25.
HFSK showed an enrichment ratio of at most 0.25.
With KEID the enrichment ratio was at most 0.25.
For DCEL, the enrichment ratio was at most 0.25.
IIKL showed an enrichment ratio of at most 0.25.
NRMT gave an enrichment ratio of at most 0.25.
QRLL showed an enrichment ratio of at most 0.25.
QAKW was tested, and the enrichment ratio was at most 0.25.
Variant TFVI has an enrichment ratio of at most 0.25.
YPKH showed an enrichment ratio of at most 0.25.
DQPW gave an enrichment ratio of at most 0.25.
GPGH showed an enrichment ratio of at most 0.25.
Work on QYIM yielded an enrichment ratio of at most 0.25.
Work on GYLS yielded an enrichment ratio of at most 0.25.
LWPL showed an enrichment ratio of at most 0.25.
In the case of YYGK, the enrichment ratio is reported as at most 0.25.
IYQV was tested, and the enrichment ratio was at most 0.25.
Variant IDQE has an enrichment ratio of at most 0.25.
Work on RMMH yielded an enrichment ratio of at most 0.25.
YHHD was tested, and the enrichment ratio was at most 0.25.
Work on KSKH yielded an enrichment ratio of at most 0.25.
GGDE showed an enrichment ratio of at most 0.25.
For WLWC, the enrichment ratio was at most 0.25.
In the case of DYKK, the enrichment ratio is reported as at most 0.25.
Work on LTDN yielded an enrichment ratio of at most 0.25.
In the case of PWNC, the enrichment ratio is reported as at most 0.25.
In the case of ERSS, the enrichment ratio is reported as at most 0.25.
Variant SPHR has an enrichment ratio of at most 0.25.
GDMA showed an enrichment ratio of at most 0.25.
ILIR was tested, and the enrichment ratio was at most 0.25.
For MLNW, the enrichment ratio was at most 0.25.
MQVP was tested, and the enrichment ratio was at most 0.25.
With NIWH the enrichment ratio was at most 0.25.
SAYS was tested, and the enrichment ratio was at most 0.25.
ITSK showed an enrichment ratio of at most 0.25.
RSQL gave an enrichment ratio of at most 0.25.
With GYWG the enrichment ratio was at most 0.25.
For PHTV, the enrichment ratio was at most 0.25.
With TARQ the enrichment ratio was at most 0.25.
Work on IHPG yielded an enrichment ratio of at most 0.25.
Variant AMKH has an enrichment ratio of at most 0.25.
With GSNP the enrichment ratio was at most 0.25.
In the case of AGVH, the enrichment ratio is reported as 5.83.
For IFDE, the enrichment ratio was at most 0.25.
Work on THKR yielded an enrichment ratio of at most 0.25.
KIHP showed an enrichment ratio of at most 0.25.
ETES was tested, and the enrichment ratio was at most 0.25.
In the case of GVPQ, the enrichment ratio is reported as at most 0.25.
Work on HWTA yielded an enrichment ratio of at most 0.25.
LNGY was tested, and the enrichment ratio was at most 0.25.
DQAP was tested, and the enrichment ratio was at most 0.25.
In the case of EMKN, the enrichment ratio is reported as at most 0.25.
YSTM gave an enrichment ratio of 9.87.
In the case of FWVP, the enrichment ratio is reported as at most 0.25.
With FQGH the enrichment ratio was at most 0.25.
MAYE showed an enrichment ratio of 33.3.
With EGVS the enrichment ratio was at most 0.25.
With DSCQ the enrichment ratio was at most 0.25.
PDLH was tested, and the enrichment ratio was at most 0.25.
Work on ECAP yielded an enrichment ratio of at most 0.25.
For RMMP, the enrichment ratio was at most 0.25.
Work on VFRC yielded an enrichment ratio of at most 0.25.
RGWQ was tested, and the enrichment ratio was at most 0.25.
